The list shows a part of the results. The full chains were built here from the parent and the listed change. Values near 0.05 are background.
B1: TEV protease; numbered along this chain (parent)
chain: MGESLFKGPRDYNPISSSICHLTNESDGHTTSLYGIGFGPFIITNKHLFRRNNGTLVVQSLHGVFKVKDTTTLQQHLVDGRDMIIIRMPKDFPPFPQKLKFREPQREERICLVTTNFQTKSMSSMVSDTSCTFPSGDGIFWKHWIQTKDGQCGSPLVSTRDGFIVGIHSASNFTNTNNYFTSVPKNFMELLTNQEAQQWVSGWRLNADSVLWGGHKVFMVKPEEPFQPVKEATQL

Variants of: B1
Assay: raw area under fraction-flipped curve 0-4 h after induction (AUC4h, not background-subtracted), DNA-recorder readout of cleavage of the substrate (dimensionless); higher = more cleavage of the substrate by the protease variant
Conditions: temperature: 34 °C; time window: 0-4 h after rhamnose induction
Method: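 In vivo DNA recorder in E. coli TOP10(DE3) ΔrhaA at 34 °C. Each TEVp single-site mutant (parent TEVp 0) is paired with a single-site variant of the 7-mer TEVs (canonical ENLYFQ|S). The substrate sits between flexible linkers in a Bxb1-sfGFP-TEVs-SsrA fusion, so cleavage stabilises Bxb1 and speeds flipping of a recombination array, read by NGS. The value is the raw area under the fraction-flipped curve over 0-4 h after rhamnose induction (AUC4h), with ≥20 reads per time point. It is not background-subtracted; inactive controls average about 0.047.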
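Further: Bxb1 expression induced with 0.2% (w/v) L-rhamnose at OD600 near 0.5, cultures sampled hourly, flipped fraction per protease–substrate barcode pair counted by paired-end Illumina sequencing.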

Variant	area with substrate EDLYFQS	area with substrate EFLYFQS	area with substrate EILYFQS	area with substrate EKLYFQS	area with substrate EMLYFQS	area with substrate EPLYFQS	area with substrate EQLYFQS	area with substrate ERLYFQS	area with substrate ESLYFQS	area with substrate EVLYFQS	area with substrate EWLYFQS	area with substrate EYLYFQS	area with substrate EELYFQS	area with substrate EGLYFQS	area with substrate EHLYFQS	area with substrate ELLYFQS	area with substrate ETLYFQS	area with substrate ECLYFQS
T72R	0.139	0.108	0.12	0.111	0.113	0.0675	0.0976	0.14	0.091	0.0863	0.131	0.134	–	–	–	–	–	–
T72N	0.118	–	0.0867	0.0902	0.0951	–	–	0.0902	0.0885	–	0.0997	0.079	0.103	0.121	0.0885	0.094	0.124	–
G8A	–	–	–	–	0.124	–	–	0.1	0.108	–	–	–	0.125	0.1	–	–	–	0.13
H168F	–	0.0522	0.0429	–	–	0.066	0.0541	0.0464	0.0657	0.0627	0.0623	0.0469	–	–	0.0522	–	0.0584	0.0579
H168L	0.0618	–	–	0.0651	0.065	0.0492	0.0586	–	0.0583	0.0524	0.0634	0.0516	0.0707	0.0564	–	–	0.0783	–
H168A	0.0565	0.0758	–	0.0607	–	–	–	–	–	0.0756	–	0.0697	–	–	–	–	0.0506	0.0488
S16G	0.102	–	0.097	–	–	0.121	–	–	0.122	–	0.108	0.121	0.109	0.0985	–	0.108	0.121	0.114
S16N	0.134	–	0.128	0.0965	–	0.111	–	0.103	0.113	0.0804	0.0867	0.108	0.132	0.0822	0.106	–	–	–
P40D	0.14	0.104	–	–	–	–	–	0.111	0.113	0.1	0.119	–	–	0.117	–	0.107	–	0.17
N24Y	–	–	0.0966	0.103	0.101	–	0.101	0.101	0.0937	0.106	0.069	0.103	–	0.096	0.0986	0.122	–	0.14
P96K	0.107	–	0.0911	0.0791	–	0.0971	0.118	0.0995	–	0.107	0.0968	–	0.143	–	–	0.0915	0.124	0.0608
P96L	–	–	0.0985	–	–	–	–	–	0.112	0.099	–	–	0.0756	0.113	–	–	–	0.0957
T192H	0.134	–	–	0.0987	–	–	0.121	0.113	0.117	–	–	0.09	–	0.0812	0.0971	–	–	0.0958
T192W	–	–	–	–	–	–	–	–	–	–	–	–	–	–	–	–	0.0794	–
T192G	–	–	0.0982	–	–	0.104	0.0463	0.0706	0.0965	0.0904	–	0.0978	0.117	–	–	–	–	0.105
T192V	0.0928	–	0.128	0.0233	0.115	–	0.108	–	0.0915	0.0882	0.102	–	0.0734	–	–	–	–	–
L56Q	0.0432	–	0.0433	0.0184	0.0208	–	0.045	0.101	0.0391	0.05	–	0.0593	0.0587	–	–	0.0322	–	–
L56C	0.0818	0.0756	0.0991	0.104	–	0.0841	0.101	–	0.0881	0.0791	–	–	0.128	0.0727	0.0894	–	0.114	–
L56W	0.0787	0.0619	0.0965	0.0593	0.057	0.0702	0.0735	0.0644	0.0629	0.0581	0.0927	0.0557	0.0701	0.0641	0.0541	0.0573	0.0597	0.0605
D208N	–	–	0.0747	0.0512	0.0563	0.0827	–	0.0841	0.0983	–	0.0889	–	0.117	0.0803	0.074	–	–	–
D208E	0.12	0.0879	0.0859	0.116	0.147	–	0.115	0.119	0.0885	–	–	–	–	0.0858	–	0.0879	0.0942	0.0976
V64K	0.118	–	0.112	–	0.125	0.0736	0.159	–	0.105	0.0983	0.0735	0.122	–	0.0883	0.133	–	–	0.105
V64Q	–	–	0.101	–	–	–	–	0.111	0.0542	0.0749	0.136	–	–	–	–	–	0.111	–
V64W	–	0.103	0.103	–	–	–	0.0988	0.114	0.119	–	–	–	0.132	–	0.115	0.117	0.131	–
V64R	–	–	–	0.113	–	–	0.129	–	0.101	0.108	–	0.129	0.151	–	–	–	–	–

Variant	area with substrate EDLYFQS	area with substrate EFLYFQS	area with substrate EILYFQS	area with substrate EKLYFQS	area with substrate EMLYFQS	area with substrate EPLYFQS	area with substrate EQLYFQS	area with substrate ERLYFQS	area with substrate ESLYFQS	area with substrate EVLYFQS	area with substrate EWLYFQS	area with substrate EYLYFQS	area with substrate EELYFQS	area with substrate EGLYFQS	area with substrate EHLYFQS	area with substrate ELLYFQS	area with substrate ETLYFQS	area with substrate ECLYFQS
L112H	–	–	0.0576	0.0722	0.0641	0.0878	0.0689	–	0.0752	0.0629	0.0688	0.0734	–	0.065	–	0.0855	0.0731	–
L112Q	0.091	–	0.0694	0.0794	–	–	0.0915	0.0837	0.0632	0.0759	0.0936	–	0.101	0.0967	0.0909	–	0.0802	–
C152D	–	–	0.0351	0.059	0.0581	0.0455	0.0492	–	0.0617	–	0.0656	–	0.0621	0.0553	0.0647	0.0414	0.0633	0.0611
D128C	0.153	0.141	0.101	0.116	–	0.0537	0.133	0.121	0.106	0.162	–	–	0.113	–	0.156	0.142	0.152	0.155
D128K	0.104	–	–	0.149	–	–	0.108	–	0.103	–	–	–	–	–	–	0.0805	–	–
D128Y	0.164	0.112	0.128	0.156	0.135	–	0.187	0.144	0.16	0.103	–	0.192	–	–	–	0.112	–	0.147
D128L	0.154	–	0.102	0.173	–	–	0.178	0.12	0.143	0.112	0.177	0.119	–	0.119	–	0.122	0.146	–
T176V	–	–	–	–	0.0742	–	–	–	–	–	–	–	–	0.0813	–	–	–	–
T176R	0.106	0.09	0.0716	0.071	–	–	0.0572	–	0.0787	0.0606	–	0.0743	0.0807	0.0071	–	–	–	–
T176M	0.0873	–	0.0664	0.0699	0.0741	–	0.0704	0.0793	0.0813	–	0.088	0.087	0.0752	–	–	0.0587	0.0849	0.0738
T176N	–	–	0.0683	0.0841	0.0896	0.0689	0.0785	0.0664	0.0746	0.0662	–	–	0.091	–	–	0.0618	0.073	–
M88D	–	–	0.0374	–	–	–	0.0107	0.0207	0.0543	–	–	–	–	–	–	0.0411	–	0.0497
M88Y	0.0582	–	0.064	–	0.068	0.0686	–	–	0.0645	–	–	0.0614	0.0753	–	0.0548	–	–	–
G136N	0.121	–	0.0797	–	0.117	0.115	–	0.116	0.118	0.0907	0.101	0.114	–	–	0.116	0.106	0.133	–
V200W	–	–	–	–	0.0784	–	0.0649	–	–	0.0522	0.0658	–	–	–	0.0614	–	–	–
V200I	–	0.106	–	0.142	–	–	0.147	–	0.104	–	–	–	0.149	–	–	–	–	0.113
V200P	–	0.0661	0.0255	–	–	–	–	–	0.0706	0.0646	0.0681	–	0.0725	0.0728	–	0.0638	–	–
L48M	0.142	–	0.106	0.0928	0.0671	–	0.0814	0.127	0.114	0.0832	–	0.115	–	0.0815	–	–	–	–
A232V	0.151	–	–	–	–	–	–	0.115	0.117	0.0815	0.0991	–	–	–	–	–	–	–
A232N	–	–	0.112	0.117	0.103	–	0.107	0.131	0.111	–	0.0831	–	0.171	0.0892	–	–	–	–
A232H	0.117	–	0.102	–	–	–	0.153	0.132	0.0969	0.128	–	–	0.123	–	–	–	0.155	0.111
G80T	0.126	–	0.099	0.104	0.156	–	–	–	0.121	–	0.0123	0.105	0.119	–	0.106	–	0.163	0.109
K216D	–	–	–	0.106	–	–	0.0943	–	0.08	–	–	–	–	–	–	–	–	–
K216I	–	0.0744	–	–	–	–	0.0921	0.135	–	0.054	0.0782	0.1	–	–	–	–	–	0.091
K216R	0.121	–	–	–	–	–	–	–	–	–	–	–	–	–	–	–	–	–

From the supplement of paper PMC12217912
